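Step 1: Grow cells in 96-well plates. Step 2: Expose to compound for 48 hours at 5 concentrations. Step 3: Interpolate endpoints linearly; if unreached, use highest concentration. Abbreviation: GI50, concentration required for 50% inhibition of growth.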 Not every entry of the source has a single result; some have several. The other results are left out here. The source may hold further records. For some assays here: A record mostly stands for its own series of concentrations, which the source does not state; some values may only mark the edge of a range.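 The concentration for full growth arrest is given as TGI.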 For some assays here: The values listed for one entry repeat one measurement across runs, samples, wells, individuals or studies. A tag in brackets gives the origin of a value. The letters are not those of the source and start again with each entry. Square brackets hold non-standard residues; d marks the D form. Peptide text beside a SMILES is read from it. * marks the point of attachment. ξ: configuration not given here. ξNMe2Val = CC(C)C(C(=O)*)N(C)C; NMeV = CN[CH](C(=O)O)C(C)C; NHBn = c1ccc(CN*)cc1
How the values were obtained:
Assay in all cases: growth of human tumour cells (NCI), 48 h
[1] = test system: HS 578T breast
[2] = test system: HT29 colon
[3] = test system: SN12C renal
[4] = test system: HCT-15 colon
[5] = test system: HOP-92 NSCLC
[6] = test system: HCT-116 colon
[7] = test system: TK-10 renal
[8] = test system: UO-31 renal
[9] = test system: MOLT-4 leukemia
[10] = test system: UACC-62 melanoma
[11] = test system: K-562 leukemia
[12] = test system: CCRF-CEM leukemia
[13] = test system: SR leukemia
[14] = test system: OVCAR-5 ovarian
[15] = test system: EKVX NSCLC
[16] = test system: KM20L2 colon
[17] = test system: OVCAR-3 ovarian
[18] = test system: HOP-18 NSCLC

CC(C)C(NC(=O)C(C(C)C)N(C)C)C(=O)N(C)C(C(=O)N1CCCC1C(=O)N1CCCC1C(=O)NCc1ccccc1)C(C)C (stereo not given) (ξNMe2Val-V[NMeV]PP-NHBn; configuration not given here)
TGI [1]: 142 nM and 50.2 µM
TGI [2]: < 0.1 nM and > 100 µM
TGI [3]: 0.69 nM and > 100 µM
TGI [4]: 0.402 nM and > 100 µM
TGI [5]: 555 nM and > 100 µM
TGI [6]: 411 nM and 13.4 nM

CC[C@H](C)[C@H](NC(=O)[C@H]1CCCCN1C)C(=O)N(C)[C@H](C[C@@H](OC(C)=O)c1cccc(C(=O)N[C@@H](Cc2ccccc2)C[C@H](C)C(=O)OC)n1)C(C)C
GI50 [7]: 48.1 nM and 9.38 µM
GI50 [8]: 50.4 nM and 561 nM
TGI [5]: 85.2 nM and > 25 µM

CN1C=c2c3c(ccc2=C2C=CC4C=C5OCOC5=CC4=C21)OCO3 (stereo not given)
TGI [9]: 729 nM [sample A, mean of 2 tests] and 13.6 µM [sample B, mean of 2 tests]
TGI [10]: 387 nM [sample A, mean of 2 tests] and 4.96 µM [sample B, 1 test]
TGI [11]: 2.32 µM [sample A, mean of 2 tests] and > 100 µM [sample B, mean of 2 tests]
TGI [12]: 664 nM [sample A, mean of 2 tests] and > 39.4 µM [sample B, mean of 2 tests]
TGI [13]: 477 nM [sample A, 1 test] and 26.2 µM [sample B, 1 test]

COC(=O)[C@@H]1c2cc3c(c(O)c2[C@@H](OC2OC(C)C(OC)C(C)(OC)C2OC)C[C@]1(C)O)C(=O)c1c(O)cc2c(c1C3=O)O[C@H]1O[C@]2(C)[C@H](O)[C@@H](N(C)C)[C@@H]1O (stereo not given in full)
TGI [14]: 466 nM and 6.03 µM
TGI [15]: 126 nM and 1.95 µM
TGI [16]: 165 nM and 11.9 µM
TGI [7]: 821 nM and 12.1 µM
TGI [17]: 373 nM and 20.3 µM
TGI [18]: 220 nM and 4.7 µM

From PubChem BioAssay (NCI)
